Experimental data reported in the supplement of paper PMC9446081.
Out of some 39,000 compounds screened, about 220 (0.56%) showed activity. This is one part of the list.
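Note: static incubation at 37 °C against the wild-type strain, values averaged over two biological replicates.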

What follows are molecules tested on Escherichia coli K-12 BW25113 (assay: relative growth (OD600 normalised to plate interquartile mean) (fraction); higher = less growth inhibition, active = 0.2 or less). Conditions: 50 µM; LB; incubation time: overnight (16-24 h).
In the case of CN(C)C(=O)c1ccc(-c2cccc(-c3nc(C(=O)NC4CCC4)cc4c3[C@@H](CCO)N([S@](=O)C(C)(C)C)C4)c2)cc1, the relative growth is reported as inactive: 1.01. In the case of O=CNC(=O)c1ccccc1C(=O)O, the relative growth is reported as inactive: 0.928. C[C@H]1CN([C@@H](C)CO)C(=O)Cc2cc(NS(=O)(=O)c3cccs3)ccc2O[C@H]1CN(C)S(C)(=O)=O was tested, and the relative growth was inactive: 1.01. N#CCC(=O)Nc1ccncc1 was tested, and the relative growth was inactive: 1.05. For Cc1csc2c(Cl)ncnc12, the relative growth was inactive: 0.987. In the case of COc1cccc(NC(=O)N[C@H]2C=C[C@@H](CC(=O)N3CCN(C)CC3)O[C@@H]2CO)c1, the relative growth is reported as inactive: 1.03. For O=C(C[C@@H]1C[C@H]2c3cc(NC(=O)c4ccc5c(c4)OCO5)ccc3O[C@H]2[C@@H](CO)O1)NCc1cccnc1, the relative growth was inactive: 0.978. CO[C@H]1CN(C)C(=O)c2ccc(NS(=O)(=O)c3cn(C)cn3)cc2OC[C@H](C)N(Cc2cccc(F)c2)C[C@@H]1C was tested, and the relative growth was inactive: 1.02. For CNC[C@H]1OCCCC[C@@H](C)Oc2ccc(NS(=O)(=O)c3cn(C)cn3)cc2C(=O)N([C@@H](C)CO)C[C@H]1C, the relative growth was inactive: 0.997. For C[C@@H]1CN([C@@H](C)CO)C(=O)Cc2cc(NC(=O)NC3CCCCC3)ccc2O[C@H]1CN(C)S(=O)(=O)c1cn(C)cn1, the relative growth was inactive: 0.984. With CC(C)[C@@H](CO)N1C(=O)[C@@H]2[C@H]3C(=O)OCC=C[C@H]3O[C@]23C=CCN(c2ccc4ccccc4c2)C(=O)[C@@H]13 the relative growth was inactive: 0.988. For CN(Cc1ccccn1)C(=O)[C@@]12COC[C@@H]1CN(S(C)(=O)=O)C2, the relative growth was inactive: 1.02. For CC1=C(C(N)=O)[C@@H](c2cccnc2)n2nnnc2N1, the relative growth was inactive: 1.04. In the case of [N-]=[N+]=N[C@]1(CO)O[C@@H](n2ccc(N)nc2=O)[C@H](O)[C@@H]1O, the relative growth is reported as inactive: 0.973. C[C@@H]1CN([C@@H](C)CO)C(=O)c2cc(NC(=O)C3CCCCC3)ccc2O[C@@H](C)CCCCO[C@H]1CN(C)Cc1ccc(C(F)(F)F)cc1 was tested, and the relative growth was inactive: 1.01. With C[C@@H]1CCCn2nncc2COCCNC1=O the relative growth was inactive: 0.991. For FCOC(C(F)(F)F)C(F)(F)F, the relative growth was inactive: 1.2. O=C(O)c1cc(O)c2cccc(O)c2n1 was tested, and the relative growth was inactive: 0.945. Cc1ccc(S(=O)(=O)N(C)C[C@@H]2Oc3ncc(C#Cc4cccc(F)c4)cc3C(=O)N([C@H](C)CO)C[C@@H]2C)cc1 was tested, and the relative growth was inactive: 1.02. For C[C@H]1CCCCO[C@H](CN(C)C(=O)NC2CCCCC2)[C@@H](C)CN([C@@H](C)CO)C(=O)c2cc(NS(=O)(=O)c3ccc(Cl)cc3)ccc2O1, the relative growth was inactive: 1.01. With C[C@@H]1CN([C@H](C)CO)C(=O)Cc2cc(NC(=O)c3ccncc3)ccc2O[C@H]1CN(C)Cc1ccc(Oc2ccccc2)cc1 the relative growth was inactive: 1.02. COc1ccc(S(=O)(=O)Nc2ccc3c(c2)C(=O)N([C@H](C)CO)C[C@@H](C)[C@H](CN(C)C(=O)NC2CCCCC2)OCCCC[C@@H](C)O3)cc1 was tested, and the relative growth was inactive: 0.999. For C[C@@H]1CN([C@H](C)CO)C(=O)Cc2cc(NC(=O)Nc3ccc(C(F)(F)F)cc3)ccc2O[C@@H]1CN(C)Cc1ccc(C(=O)Nc2ccccc2N)cc1, the relative growth was inactive: 1.01. In the case of C[C@H](CO)N1C[C@H](C)[C@H](CN(C)C(=O)CN(C)C)Oc2ncc(C#CC3(O)CCCC3)cc2C1=O, the relative growth is reported as inactive: 0.993. For CC(C)NC(=O)Nc1cccc2c1O[C@@H](CN(C)Cc1ccc(Oc3ccccc3)cc1)[C@@H](C)CN([C@H](C)CO)C2=O, the relative growth was inactive: 0.894. With COc1ccc(CN(C)C[C@H]2OCCCC[C@H](C)Oc3ccc(NC(=O)c4ccncc4)cc3C(=O)N([C@@H](C)CO)C[C@H]2C)cc1 the relative growth was inactive: 0.981. With COc1ccc(S(=O)(=O)N(C)C[C@H]2OCCCC[C@@H](C)Oc3ccc(NC(=O)Nc4c(C)noc4C)cc3C(=O)N([C@@H](C)CO)C[C@H]2C)cc1 the relative growth was inactive: 0.971. With C[C@@H]1CN([C@@H](C)CO)C(=O)c2cc(NC(=O)c3ccncc3)ccc2O[C@@H](C)CCCCO[C@H]1CN(C)S(=O)(=O)c1cn(C)cn1 the relative growth was inactive: 0.982. With O=C(C[C@@H]1C=C[C@H](NC(=O)c2cccc(F)c2)[C@H](CO)O1)NCCN1CCCC1 the relative growth was inactive: 0.919. With O=C(C[C@H]1CC[C@@H]2[C@H](COC[C@@H](O)CN2CC2CCOCC2)O1)N1CCOCC1 the relative growth was inactive: 0.983. With Cc1ccc(S(=O)(=O)Nc2ccc3c(c2)C(=O)N([C@H](C)CO)C[C@H](C)[C@@H](CN(C)C(=O)Nc2cccc4ccccc24)OCCCC[C@@H](C)O3)cc1 the relative growth was inactive: 1.03. In the case of C[C@H](CO)N1C[C@H](C)[C@H](CN(C)Cc2ccc3c(c2)OCO3)Oc2ccc(NC(=O)C3CC3)cc2CC1=O, the relative growth is reported as inactive: 1. For COc1ccc(S(=O)(=O)N(C)C[C@@H]2Oc3ccc(NC(=O)Nc4c(C)noc4C)cc3C(=O)N([C@H](C)CO)C[C@H]2C)cc1, the relative growth was inactive: 0.893. In the case of C[C@H]1CN([C@@H](C)CO)C(=O)CCCn2cc(nn2)CO[C@H]1CN(C)S(C)(=O)=O, the relative growth is reported as inactive: 0.991. Cc1ccc(-c2cnc3c(c2)C(=O)N([C@H](C)CO)C[C@H](C)[C@@H](CN(C)C(=O)Cc2ccncc2)O3)cc1 was tested, and the relative growth was inactive: 1.02. For C[C@@H]1CN([C@H](C)CO)C(=O)c2cc(C#CCN(C)C)cnc2O[C@@H]1CN(C)C(=O)c1ccc2c(c1)OCO2, the relative growth was inactive: 1.01. For CS(=O)(=O)N1CCN(C(=O)NCc2ccccc2)C[C@]2(CNC(=O)C2)C1, the relative growth was inactive: 1.01. For Cc1ccc(S(=O)(=O)Nc2ccc3c(c2)C(=O)N([C@H](C)CO)C[C@H](C)[C@H](CN(C)Cc2ccccc2)OCCCC[C@@H](C)O3)cc1, the relative growth was inactive: 0.99. In the case of C[C@H](CO)N1C[C@H](C)[C@@H](CN(C)C(=O)CCC(F)(F)F)OCc2ccccc2-c2c(n(C)c3ccccc23)C1=O, the relative growth is reported as inactive: 0.996. In the case of C[C@H]1CN([C@@H](C)CO)C(=O)c2cc(NC(=O)Nc3ccc(F)cc3)ccc2O[C@H]1CN(C)CC1CCCCC1, the relative growth is reported as inactive: 1.01. For O=C(O)CCC(=O)N1CC(=O)Nc2ccccc21, the relative growth was inactive: 0.964. In the case of C[C@@H]1CCCCO[C@@H](CN(C)S(C)(=O)=O)[C@H](C)CN([C@@H](C)CO)C(=O)c2cc(NS(=O)(=O)c3cn(C)cn3)ccc2O1, the relative growth is reported as inactive: 0.966. With CN1C(=O)c2cc(NS(=O)(=O)CC(F)(F)F)ccc2OC[C@H]2O[C@@H](CC(=O)NCC3CCCCC3)CC[C@@H]21 the relative growth was inactive: 1.01. For COc1ccc(-c2csc(C(C#N)=C3CCCCC3)n2)cc1, the relative growth was inactive: 0.993. In the case of CC(C)NC(=O)N[C@@H]1CC[C@@H](CCN)O[C@@H]1CO, the relative growth is reported as inactive: 1.01. In the case of C[C@H](CO)N1C[C@H](C)[C@H](CN(C)C(=O)Cc2ccccn2)Oc2cc(-c3ccc(C(=O)N(C)C)cc3)ccc2S1(=O)=O, the relative growth is reported as inactive: 0.991. For C[C@@H]1CCCCO[C@@H](CN(C)S(=O)(=O)c2ccc(Cl)cc2)[C@@H](C)CN([C@@H](C)CO)C(=O)c2cc(NC(=O)Nc3ccc(F)cc3)ccc2O1, the relative growth was inactive: 1.03. Cc1ccc(S(=O)(=O)N(C)C[C@H]2OCCCC[C@H](C)Oc3ccc(NS(C)(=O)=O)cc3C(=O)N([C@H](C)CO)C[C@H]2C)cc1 was tested, and the relative growth was inactive: 0.971. CCCNC(=O)Nc1ccc2c(c1)OC[C@@H](C)N(C(=O)C1CCOCC1)C[C@H](C)[C@@H](OC)CN(C)C2=O was tested, and the relative growth was inactive: 0.979. C[C@H]1CCCCO[C@H](CN(C)C(=O)Nc2ccc(C(F)(F)F)cc2)[C@@H](C)CN([C@@H](C)CO)C(=O)c2cc(NC(=O)Nc3ccc(C(F)(F)F)cc3)ccc2O1 was tested, and the relative growth was inactive: 1.02. C[C@H]1CN([C@@H](C)CO)S(=O)(=O)c2ccc(C3=CCCCC3)cc2O[C@@H]1CN(C)S(=O)(=O)c1cn(C)cn1 was tested, and the relative growth was inactive: 1.02. CN1C(=O)c2cc(NS(=O)(=O)c3ccc(F)cc3)ccc2OC[C@@H]2O[C@@H](CC(=O)NCC(F)(F)F)CC[C@H]21 was tested, and the relative growth was inactive: 1.03. COc1cc2c(cc1OC)CN(C(=O)[C@@H]1[C@H]3C(=O)O[C@H](c4ccccc4)[C@H](c4ccccc4)N3[C@H](c3ccccc3OCCO)[C@@]13C(=O)Nc1ccc(C#CC4(O)CCCCCC4)cc13)CC2 was tested, and the relative growth was inactive: 1.08. With C[C@H](CO)N1C[C@H](C)[C@H](CN(C)C(=O)Nc2ccccc2)Oc2ccc(NC(=O)Cn3cnnn3)cc2CC1=O the relative growth was inactive: 0.991. C[C@@H]1CN([C@@H](C)CO)C(=O)Cc2cc(NC(=O)NC3CCCCC3)ccc2O[C@@H]1CN(C)Cc1ccc(C(=O)Nc2ccccc2N)cc1 was tested, and the relative growth was inactive: 1.02. In the case of COc1ccc([Si](C)(C)[C@@H]2[C@@H](CCn3cc([C@H](O)c4ccccc4)nn3)O[C@]3(C(=O)N(Cc4cccc(N5CCOC5=O)c4)c4ccccc43)[C@H]2C)cc1, the relative growth is reported as inactive: 1.01. COC1C(O)CC(=O)OC(C)CC=CC=CC(O)C(C)CC(CC=O)C1OC1OC(C)C(OC2CC(C)(O)C(OC(=O)CC(C)C)C(C)O2)C(N(C)C)C1O (stereo not given) [KITASAMYCINS [A1 shown]] was tested, and the relative growth was inactive: 0.385. In the case of COc1ccc(NC(=O)N(C)C[C@@H]2OCCCC[C@H](C)Oc3ccc(NS(=O)(=O)c4ccccc4)cc3C(=O)N([C@H](C)CO)C[C@H]2C)cc1, the relative growth is reported as inactive: 1.04. CC(C)(C)[S@@](=O)N1Cc2cc(C(=O)NCc3ccc4c(c3)OCO4)nc(-c3cccc(-c4ccccc4)c3)c2[C@H]1CCO was tested, and the relative growth was inactive: 1.02. C[C@H]1CN([C@@H](C)CO)C(=O)Cc2cc(NC(=O)CCCCCC(=O)Nc3ccccc3N)ccc2O[C@@H]1CN(C)C(=O)Nc1cccc2ccccc12 was tested, and the relative growth was inactive: 0.975.
